Measured values from PubChem BioAssay AID1468 (National Center for Advancing Translational Sciences (NCATS), 2008).
The whole screen tested about 280,000 compounds, of which about 1,100 (0.39%) were called active. Inconclusive means that the source gave no clear call. Such entries were picked first, then a sample of the others. Calls come from the whole dose curve; as a rule, active = well fitted inhibition curve with a large enough effect; inconclusive = small, poorly fitted or top-dose-only effect, or effect the other way; inactive = flat fitted curve, though single readings scatter. Potencies of inconclusive entries are left out as doubtful fits.

Molecular target: Microtubule-associated protein tau (Homo sapiens) (UniProt P10636)
Assay: qHTS for Inhibitors of Tau Fibril Formation, Fluorescence Polarization; note: nearly all actives have a fitted effect of over 55% in size
Conditions: K18 P301L tau heparin fibrillization, Alexa594 FP, 6 h; series mostly up to 57.7 µM; activity, negative = inhibition: at the top concentration
In short: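 K18 P301L tau (15 uM unlabeled/0.24 uM Alexa 594-labeled, final) + compound + heparin 20 uM final; 100 mM NaOAc pH 7; 6 hr 37 C; ThT 30 uM final added, 1 hr RT; FP ex 555/em 632 nm.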
% is set by controls: 0 for no effect and ±100 for the full control effect; potency is the fitted concentration of half-maximal effect; tags give direction and shape of the fitted curve.

UniProt P10636, sequence (P10636 whole entry, looked up): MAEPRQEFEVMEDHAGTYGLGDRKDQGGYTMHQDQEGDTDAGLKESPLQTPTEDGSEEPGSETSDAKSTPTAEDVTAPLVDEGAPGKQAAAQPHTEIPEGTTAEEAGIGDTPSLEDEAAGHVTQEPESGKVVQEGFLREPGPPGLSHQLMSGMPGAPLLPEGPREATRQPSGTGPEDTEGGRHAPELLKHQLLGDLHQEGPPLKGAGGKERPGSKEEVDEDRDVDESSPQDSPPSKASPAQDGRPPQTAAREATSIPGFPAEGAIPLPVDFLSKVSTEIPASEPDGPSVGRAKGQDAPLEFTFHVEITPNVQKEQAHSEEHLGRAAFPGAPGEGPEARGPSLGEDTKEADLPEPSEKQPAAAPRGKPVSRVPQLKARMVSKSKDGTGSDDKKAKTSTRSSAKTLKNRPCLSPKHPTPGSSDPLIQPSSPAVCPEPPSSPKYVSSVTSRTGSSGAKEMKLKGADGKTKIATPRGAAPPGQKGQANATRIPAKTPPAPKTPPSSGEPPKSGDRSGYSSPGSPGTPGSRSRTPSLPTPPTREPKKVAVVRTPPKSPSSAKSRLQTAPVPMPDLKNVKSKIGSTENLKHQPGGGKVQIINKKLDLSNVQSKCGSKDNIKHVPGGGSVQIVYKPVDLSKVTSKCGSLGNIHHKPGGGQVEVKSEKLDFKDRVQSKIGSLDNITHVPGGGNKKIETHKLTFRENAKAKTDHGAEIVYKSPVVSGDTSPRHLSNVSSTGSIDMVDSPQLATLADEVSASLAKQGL

SMILES | Potency | activity, negative = inhibition
COc1ccc(NC(=S)N(CCCN2CCCC2)Cc2cccs2)cc1 | inconclusive [activator, single point] | 
Cc1ccccc1-c1noc(CSc2nc(-c3ccc(F)cc3)cc(=O)[nH]2)n1 |  | inactive: -6.98%
COC(=O)Cc1c(C)c2ccc3c(c2oc1=O)CN(Cc1ccc(C)cc1)CO3 |  | inactive: -9.62%
O=C(OCC(=O)c1c[nH]c2ccccc12)c1cccc(S(=O)(=O)N2CCCCCC2)c1 | inconclusive [inhibitor, full curve] | 
COc1ccc(C2/C=C\CN(C(=O)Nc3ccc(C(F)(F)F)cc3)CC(=O)N2Cc2ccc(F)cc2)cc1 (centres undefined) | inconclusive [inhibitor, partial curve] | 
CCCCC#Cc1nc(NC)c2ncn([C@@H]3O[C@@H](CO)[C@H](O)[C@H]3O)c2n1 |  | inactive: -3.34%
Cc1ccc(-n2nc3ccc(NC(=O)c4cccc([N+](=O)[O-])c4C)cc3n2)cc1 | inconclusive [inhibitor, partial curve, poor fit] | 
CCOC(=O)c1cnc2ccc(OC(F)(F)F)cc2c1Nc1ccccc1C(=O)O |  | inactive: 3.2%
O=C(CSc1ccc(Cl)cc1)Nc1cccc(-c2nc3ncccc3o2)c1 | inconclusive [inhibitor, single point] | 
CCOC(=O)c1cnn2c(C(F)(F)F)cc(-c3ccc(Br)cc3)nc12 |  | inactive: -2.88%
O=C(Nc1cccc(C(F)(F)F)c1)C1CCN(S(=O)(=O)c2cccc3nsnc23)CC1 | inconclusive [inhibitor, partial curve] | 
Cc1cc(=O)[nH]c(N/N=C/C(C)c2ccccc2)n1 (centres undefined) | inconclusive [inhibitor, partial curve] | 
CCc1ccc2[nH]c(=O)c(C(c3nnnn3CC3CCCO3)N3CCCc4ccccc43)cc2c1 (centres undefined) | inconclusive [inhibitor, partial curve] | 
CCN(c1ccccc1)S(=O)(=O)c1cc(C(=O)Nc2cccc(Cl)c2)ccc1F | inconclusive [inhibitor, partial curve] | 
Cc1cc(C)c(NS(=O)(=O)c2ccc3c(c2)NC(=O)CCS3)c(C)c1 |  | inactive: -0.649%
Cc1c(I)c(=O)n(-c2ccccc2)n1C |  | inactive: -4.42%
O=C(C1=C(O)/C(=C/c2ccc(O)cc2)CCC1)C(F)(F)F | inconclusive [inhibitor, single point] | 
Cc1cc(C)c(NC(=O)Nc2sc3nc4n(c(=O)c3c2C)CCC(C)CC4)c(C)c1 (centres undefined) | inconclusive [activator, partial curve, poor fit] | 
CCOC(=O)CC(=O)c1[nH]c(C)c(C(=O)OCC)c1C | inconclusive [inhibitor, partial curve] | 
CCCCN(CCCNC(=O)c1c(C)cc(=O)oc1C)c1ccccc1 |  | inactive: -0.968%
CC(=O)c1ccc(NC(=O)CSc2nnc(NC(=O)NC3CCCCC3)s2)cc1 | inconclusive [inhibitor, partial curve] | 
BrC(=C\c1ccccc1)/C=N/n1cnnc1 | inconclusive [inhibitor, partial curve, poor fit] | 

SMILES | Potency | activity, negative = inhibition
O=C(Nc1ccc(F)c(Cl)c1)c1nsc(Cl)c1Cl | inconclusive [inhibitor, single point] | 
COc1cccc2c1C(=O)c1ccc3ccccc3c1C2=O | inconclusive [activator, partial curve, poor fit] | 
N#CC12C(N)=NC3(OCCO3)C1(C#N)C1=C(CCC1)NC2c1ccccc1 (centres undefined) |  | inactive: -4.2%
COc1ccc(-n2sc3c(c2=S)-c2cc(OC)ccc2NC3(C)C)cc1 | inconclusive [activator, full curve, poor fit] | 
CCCC(=O)N1CCN(c2ccc(NC(=O)c3sc4ccccc4c3Cl)cc2)CC1 | inconclusive [inhibitor, single point] | 
CCCN(CCC)CCNC(=O)C1CC(=O)N(c2ccc(OC)cc2)C1c1ccc(OC)cc1 (centres undefined) |  | inactive: 3.6%
CSc1ccc(-c2nc3cc(C)ccn3c2Nc2ccc(C)cc2)cc1 | inconclusive [activator, partial curve, poor fit] | 
O=C(Nc1ccc2ccccc2c1)c1cn(-c2ccccc2)nc1-c1cccs1 | inconclusive [inhibitor, partial curve] | 
NC(=O)C1CCN(c2nc(C3CC3)nc3c2nnn3Cc2ccccc2Cl)CC1 | inconclusive [inhibitor, full curve, poor fit] | 
COc1cc([N+](=O)[O-])ccc1-c1ccc(C(=O)Nc2ccc(NC(C)=O)cc2)o1 |  | inactive: -5.76%
Cc1ccc(N(CC(=O)N/N=C/c2cc(C)n(-c3ccccc3C)c2C)S(C)(=O)=O)cc1 |  | inactive: 10.7%
O=C1NCC(O)=C1C=Nc1ccccc1O |  | inactive: -4.85%
CCN(C(=O)c1cc2c(=O)[nH]c3ccc(C)cc3c2s1)c1ccc(OC)cc1 | inconclusive [inhibitor, partial curve] | 
CCOC(=O)c1sc(=NC(=O)c2ccc(C)cc2)n(C)c1C | inconclusive [inhibitor, single point] | 
COc1cc(NC(=S)N2CCN(Cc3ccccc3)CC2)cc(OC)c1 |  | inactive: 0.416%
CCCCn1c(C2CC(=O)N(c3ccc(OCC)cc3)C2)nc2ccccc21 (centres undefined) |  | inactive: -5.01%
CCC12CCCN3CCc4c(n(c5ccccc45)C(O)(C(=O)OC)C1)C32 (centres undefined) | inconclusive [inhibitor, partial curve] | 
CC1C2CC(C(S(=O)(=O)N3CCOCC3)C2=O)C1(C)C (centres undefined) | inconclusive [inhibitor, full curve, poor fit] | 
CCC(C(=O)NC1CCCCC1)n1nc(C)c2sc3ccccc3c2c1=O (centres undefined) |  | inactive: -9.76%
COc1ccc(C2=CC(c3ccco3)n3ncnc3N2)cc1 (centres undefined) | inconclusive [inhibitor, partial curve] | 
COc1ccc(C2/C(=C(/O)c3ccccc3)C(=O)C(=O)N2CO)cc1 (centres undefined) | inconclusive [inhibitor, single point] | 
CCCc1ccc(OCC(=O)Nc2scc(-c3cccs3)c2C(=O)OC)cc1 | inconclusive [inhibitor, single point] | 
